Data on 39 substances can be found in article PMC12350791.

Some targets named below: CPSF2 (UniProt Q9P2I0); EBNA1BP2 (UniProt Q99848); EEF1D (UniProt P29692); EEF1G (UniProt P26641); ERLIN2 (UniProt O94905); FLOT2 (UniProt Q14254); HNRNPAB (UniProt Q99729); HNRNPD (UniProt Q14103); HNRNPM (UniProt P52272); KIF21A (UniProt Q7Z4S6); LBR (UniProt Q14739); LMNB1 (UniProt P20700); MCM5 (UniProt P33992); MCM6 (UniProt Q14566); MCM7 (UniProt P33993); NDUFA5 (UniProt Q16718); NDUFA7 (UniProt O95182); NDUFAF4 (UniProt Q9P032); NUP54 (UniProt Q7Z3B4); NUP58 (UniProt Q9BVL2); NUP88 (UniProt Q99567); PHB2 (UniProt Q99623); PHF5A (UniProt Q7RTV0); SF3B5 (UniProt Q9BWJ5); PSMD5 (UniProt Q16401); SF3A1 (UniProt Q15459); SF3A3 (UniProt Q12874); SMC4 (UniProt Q9NTJ3); SNRNP40 (UniProt Q96DI7); SNRPD3 (UniProt P62318); SPCS1 (UniProt Q9Y6A9); SPTAN1 (UniProt Q13813); SRP9 (UniProt P49458); STIP1 (UniProt P31948); THOC1 (UniProt Q96FV9); THRAP3 (UniProt Q9Y2W1); TMED5 (UniProt Q9Y3A6); XRCC5 (UniProt P13010); YWHAZ (UniProt P63104).

Experiment in all cases: cross-linking mass spectrometry
Holding throughout (conditions): DSBSO, in cells or nuclear extract, not told apart

Some entries of the source have several records that differ or are many. This list holds those alone. The source may hold further records. Some protein pairs were linked at several places, one record each.

NDUFS3, sequence (O75489 whole entry): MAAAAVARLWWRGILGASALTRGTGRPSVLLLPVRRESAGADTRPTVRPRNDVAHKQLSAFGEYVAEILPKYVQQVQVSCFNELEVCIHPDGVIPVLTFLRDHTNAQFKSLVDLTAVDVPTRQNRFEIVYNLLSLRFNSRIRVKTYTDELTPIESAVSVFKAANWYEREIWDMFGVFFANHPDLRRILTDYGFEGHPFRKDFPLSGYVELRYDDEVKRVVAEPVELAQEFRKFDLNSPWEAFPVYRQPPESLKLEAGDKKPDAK
NUP54, Q7Z3B4, sequence (Q7Z3B4 whole entry): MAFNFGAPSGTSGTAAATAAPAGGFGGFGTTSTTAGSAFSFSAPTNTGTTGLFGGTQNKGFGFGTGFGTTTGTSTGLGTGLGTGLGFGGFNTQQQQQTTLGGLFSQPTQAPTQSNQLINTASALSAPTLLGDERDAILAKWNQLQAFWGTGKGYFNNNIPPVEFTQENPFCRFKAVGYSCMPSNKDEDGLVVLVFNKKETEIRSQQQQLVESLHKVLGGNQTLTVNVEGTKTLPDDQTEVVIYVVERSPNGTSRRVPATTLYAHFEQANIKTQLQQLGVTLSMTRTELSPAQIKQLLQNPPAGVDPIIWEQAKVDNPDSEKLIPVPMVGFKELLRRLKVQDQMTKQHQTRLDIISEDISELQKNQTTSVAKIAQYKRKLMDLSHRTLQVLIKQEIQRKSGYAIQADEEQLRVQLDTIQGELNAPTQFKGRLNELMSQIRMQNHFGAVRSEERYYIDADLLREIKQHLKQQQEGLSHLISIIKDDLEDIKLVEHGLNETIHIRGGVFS
NUP54, sequence (Q7Z3B4 whole entry): as above
UniProt P62318, sequence (P62318 whole entry): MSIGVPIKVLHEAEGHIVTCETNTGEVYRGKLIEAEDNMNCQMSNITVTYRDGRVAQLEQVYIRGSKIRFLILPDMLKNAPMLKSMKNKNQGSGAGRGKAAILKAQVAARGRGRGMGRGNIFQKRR
UniProt Q14566, sequence (Q14566 whole entry): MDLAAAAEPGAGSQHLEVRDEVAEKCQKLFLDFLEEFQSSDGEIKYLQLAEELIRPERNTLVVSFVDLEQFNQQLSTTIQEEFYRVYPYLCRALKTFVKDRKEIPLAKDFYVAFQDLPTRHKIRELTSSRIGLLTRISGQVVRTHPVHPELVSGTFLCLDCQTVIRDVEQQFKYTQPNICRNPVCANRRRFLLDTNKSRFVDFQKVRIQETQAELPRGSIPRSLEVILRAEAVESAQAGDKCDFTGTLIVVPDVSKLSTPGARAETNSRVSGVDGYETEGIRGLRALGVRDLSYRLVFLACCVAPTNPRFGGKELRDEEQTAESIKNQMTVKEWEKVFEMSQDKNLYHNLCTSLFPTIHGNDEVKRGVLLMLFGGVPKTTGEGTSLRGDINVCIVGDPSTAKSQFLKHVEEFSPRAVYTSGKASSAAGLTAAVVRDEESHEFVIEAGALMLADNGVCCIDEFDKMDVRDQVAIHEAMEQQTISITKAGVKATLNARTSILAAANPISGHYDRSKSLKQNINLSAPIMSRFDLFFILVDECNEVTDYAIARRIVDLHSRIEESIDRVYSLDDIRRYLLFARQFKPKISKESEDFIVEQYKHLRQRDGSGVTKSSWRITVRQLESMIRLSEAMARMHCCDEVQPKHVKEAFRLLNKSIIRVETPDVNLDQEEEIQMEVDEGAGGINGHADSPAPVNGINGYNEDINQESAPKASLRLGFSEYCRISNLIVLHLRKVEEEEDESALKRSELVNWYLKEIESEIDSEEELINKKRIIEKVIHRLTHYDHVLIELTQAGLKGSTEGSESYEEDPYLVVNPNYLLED
UniProt P13010, sequence (P13010 whole entry): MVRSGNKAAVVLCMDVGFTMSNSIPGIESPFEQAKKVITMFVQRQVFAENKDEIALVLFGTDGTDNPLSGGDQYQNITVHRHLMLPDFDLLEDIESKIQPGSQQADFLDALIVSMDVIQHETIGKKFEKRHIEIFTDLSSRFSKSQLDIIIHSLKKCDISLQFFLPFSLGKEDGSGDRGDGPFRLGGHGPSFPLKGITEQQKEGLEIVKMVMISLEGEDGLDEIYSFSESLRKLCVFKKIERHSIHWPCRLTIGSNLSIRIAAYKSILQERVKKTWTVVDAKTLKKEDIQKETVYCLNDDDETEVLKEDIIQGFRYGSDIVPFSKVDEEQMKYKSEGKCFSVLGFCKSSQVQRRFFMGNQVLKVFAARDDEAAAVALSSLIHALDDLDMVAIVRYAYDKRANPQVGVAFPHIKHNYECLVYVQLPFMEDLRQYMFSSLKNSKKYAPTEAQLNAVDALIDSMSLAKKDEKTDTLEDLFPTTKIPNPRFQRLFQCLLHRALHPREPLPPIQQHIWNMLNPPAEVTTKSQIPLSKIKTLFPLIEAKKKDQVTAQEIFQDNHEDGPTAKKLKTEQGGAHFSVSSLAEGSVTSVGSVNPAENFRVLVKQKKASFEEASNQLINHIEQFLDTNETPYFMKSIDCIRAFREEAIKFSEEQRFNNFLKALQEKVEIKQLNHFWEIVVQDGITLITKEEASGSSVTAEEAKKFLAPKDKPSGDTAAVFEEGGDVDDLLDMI
SF3A3, Q12874, sequence (Q12874 whole entry): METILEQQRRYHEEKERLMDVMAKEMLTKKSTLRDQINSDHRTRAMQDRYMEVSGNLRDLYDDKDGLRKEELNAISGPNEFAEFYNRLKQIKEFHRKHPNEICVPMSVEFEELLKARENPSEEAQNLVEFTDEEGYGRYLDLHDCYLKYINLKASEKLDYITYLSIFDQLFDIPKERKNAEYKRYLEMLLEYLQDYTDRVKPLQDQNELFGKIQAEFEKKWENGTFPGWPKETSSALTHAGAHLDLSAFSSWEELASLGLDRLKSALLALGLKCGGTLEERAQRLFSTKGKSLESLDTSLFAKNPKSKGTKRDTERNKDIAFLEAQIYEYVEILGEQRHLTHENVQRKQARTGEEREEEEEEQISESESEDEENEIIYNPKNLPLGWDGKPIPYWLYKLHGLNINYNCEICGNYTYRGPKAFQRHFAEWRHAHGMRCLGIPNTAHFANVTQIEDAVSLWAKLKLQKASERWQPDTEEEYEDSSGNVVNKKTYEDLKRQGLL
SF3A3, sequence (Q12874 whole entry): as above
UniProt P49458, sequence (P49458 whole entry): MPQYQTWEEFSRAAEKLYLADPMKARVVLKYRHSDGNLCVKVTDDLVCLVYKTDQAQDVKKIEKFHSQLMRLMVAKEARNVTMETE
HNRNPDL, sequence (O14979 whole entry): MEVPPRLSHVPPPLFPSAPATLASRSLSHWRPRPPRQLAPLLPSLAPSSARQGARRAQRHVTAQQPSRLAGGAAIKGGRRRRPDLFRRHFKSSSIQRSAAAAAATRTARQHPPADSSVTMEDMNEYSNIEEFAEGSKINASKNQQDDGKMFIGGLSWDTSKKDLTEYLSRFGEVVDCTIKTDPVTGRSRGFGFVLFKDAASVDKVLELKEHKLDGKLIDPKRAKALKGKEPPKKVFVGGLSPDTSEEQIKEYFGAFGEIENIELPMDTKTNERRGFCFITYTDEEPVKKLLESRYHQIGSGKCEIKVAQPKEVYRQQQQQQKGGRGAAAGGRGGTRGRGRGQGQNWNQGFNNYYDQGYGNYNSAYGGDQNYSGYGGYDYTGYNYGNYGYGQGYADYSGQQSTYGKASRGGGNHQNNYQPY
NUP62, sequence (P37198 whole entry): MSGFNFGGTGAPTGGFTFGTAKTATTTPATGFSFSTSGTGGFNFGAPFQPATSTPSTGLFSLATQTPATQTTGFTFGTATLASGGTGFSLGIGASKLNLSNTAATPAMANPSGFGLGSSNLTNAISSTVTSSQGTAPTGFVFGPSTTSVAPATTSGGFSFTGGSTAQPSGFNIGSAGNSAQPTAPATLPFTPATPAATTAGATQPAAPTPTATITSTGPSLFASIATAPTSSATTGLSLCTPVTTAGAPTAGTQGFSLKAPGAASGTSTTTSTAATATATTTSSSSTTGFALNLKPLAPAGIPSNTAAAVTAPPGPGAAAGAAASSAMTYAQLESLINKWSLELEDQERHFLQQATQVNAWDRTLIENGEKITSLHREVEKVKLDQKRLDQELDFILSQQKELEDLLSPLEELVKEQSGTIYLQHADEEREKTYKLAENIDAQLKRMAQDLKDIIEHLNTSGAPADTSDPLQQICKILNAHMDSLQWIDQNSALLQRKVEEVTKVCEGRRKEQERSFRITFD
UniProt Q99623, sequence (Q99623 whole entry): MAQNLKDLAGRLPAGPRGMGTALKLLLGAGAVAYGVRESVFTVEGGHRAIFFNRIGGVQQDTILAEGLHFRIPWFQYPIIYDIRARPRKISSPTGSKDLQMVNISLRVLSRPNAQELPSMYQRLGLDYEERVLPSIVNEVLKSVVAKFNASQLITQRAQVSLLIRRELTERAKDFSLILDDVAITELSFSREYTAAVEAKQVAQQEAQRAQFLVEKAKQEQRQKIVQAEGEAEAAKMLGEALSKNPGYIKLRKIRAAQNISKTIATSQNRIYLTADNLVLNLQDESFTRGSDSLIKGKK
SNRPA1, sequence (P09661 whole entry): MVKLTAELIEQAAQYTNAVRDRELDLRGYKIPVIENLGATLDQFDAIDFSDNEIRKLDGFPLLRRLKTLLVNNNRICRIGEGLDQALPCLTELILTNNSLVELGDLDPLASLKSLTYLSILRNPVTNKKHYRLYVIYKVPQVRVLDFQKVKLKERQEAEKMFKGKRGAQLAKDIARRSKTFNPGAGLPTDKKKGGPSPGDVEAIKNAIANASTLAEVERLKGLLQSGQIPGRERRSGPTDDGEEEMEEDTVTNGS
SPCS2, sequence (Q15005 whole entry): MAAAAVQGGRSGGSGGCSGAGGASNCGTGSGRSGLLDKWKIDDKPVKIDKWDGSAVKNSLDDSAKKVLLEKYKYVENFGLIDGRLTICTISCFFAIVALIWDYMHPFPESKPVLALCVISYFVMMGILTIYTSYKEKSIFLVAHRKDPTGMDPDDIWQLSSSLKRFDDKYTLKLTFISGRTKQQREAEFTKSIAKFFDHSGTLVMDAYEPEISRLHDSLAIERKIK

As to CPSF1, Q10570, in the test with CPSF2, the cross-linked residues result was “K116 - K459 and K1421 - K459”. Take BRIX1, Q8TDN6: the cross-linked residues entry with EBNA1BP2 is “K31 - K127 and K276 - K33”.

As to EEF1G, P26641, the cross-linked residues result with EEF1D is “K212 - K107 and K219 - K17 and K219 - K107 and K227 - K17 and K227 - K107 and K434 - K107”.

Consider EEF1B2, P24534, for which the cross-linked residues entry with EEF1G is “K176 - K434 and K185 - K277”. ERLIN1, O75477: the cross-linked residues result in the test with ERLIN2 was “K228 - K241 and K234 - K232”.

For the substance FLOT1, O75955, in the test with FLOT2, the cross-linked residues entry is “K54 - K160 and K54 - K169 and K166 - K160 and K219 - K211 and K340 - K350 and K422 - K390”. As for HNRNPD, Q14103, the cross-linked residues result with HNRNPAB was “K197 - K82 and K197 - K86 and K197 - K118”. In the case of HNRNPDL, O14979, the cross-linked residues result with HNRNPD was “K142 - K197 and K197 - K197 and K302 - K251”. Consider HNRNPU, Q00839, for which the cross-linked residues entry in the test with HNRNPD was “K565 - K165 and K592 - K197”.

As for MATR3, P43243, the cross-linked residues result with HNRNPM is “K146 - K381 and K146 - K651”. For PSMD3, O43242, the cross-linked residues result with KIF21A is “K315 - K847 and K404 - K847”. In the case of C1QBP, Q07021, the cross-linked residues result in the test with LBR is “K91 - K64 and K91 - K123”. Regarding LMNA, P02545, the cross-linked residues entry with LMNB1 was “K144 - K157 and K171 - K181”. With MCM3, P25205, the cross-linked residues result in the test with MCM5 is “K435 - K471 and K435 - K696”.

With MCM4, P33991, the cross-linked residues result in the test with MCM6 was “K549 - K205 and K600 - K486 and K837 - K517”; with MCM7, “K220 - K96 and K409 - K236 and K627 - K596”.

In the case of NDUFA7, O95182, the cross-linked residues entry with NDUFA5 is “K80 - K46 and K102 - K67”. As for NDUFS3, O75489, the cross-linked residues entry in the test with NDUFA7 was “K56 - K80 and K56 - K93”; with NDUFAF4, “K217 - K107 and K232 - K73”. For NUP62, P37198, the cross-linked residues result with NUP54 was “K435 - K428 and K498 - K482 and K498 - K489”; with NUP58 it was “K371 - K288 and K371 - K291”.

For the substance NUP54, Q7Z3B4, the cross-linked residues result with NUP58 was “K321 - K291 and K338 - K278 and K345 - K278 and K398 - K330 and K482 - K278 and K482 - K288 and K489 - K310 and K489 - K320”. On to NUP214, P35658, for which the cross-linked residues entry with NUP88 is “K726 - K592 and K800 - K663”. As for PHB1, P35232, the cross-linked residues result with PHB2 is “K83 - K200 and K128 - K147 and K186 - K97 and K202 - K216 and K202 - K262 and K208 - K236”. Turning to SF3B3, Q15393, the cross-linked residues entry was “K137 - K13 and K137 - K95” with PHF5A; “K109 - K17 and K137 - K17” with SF3B5. PSMC2, P35998: the cross-linked residues entry with PSMD5 is “K422 - K147 and K422 - K461”. Consider SF3A3, Q12874, for which the cross-linked residues entry with SF3A1 is “K69 - K223 and K201 - K251 and K219 - K55 and K390 - K55”.

Take SNRPA1, P09661: the cross-linked residues result with SF3A3 was “K179 - K69 and K191 - K69 and K221 - K69”.

As for PHF5A, Q7RTV0, in the test with SF3B5, the cross-linked residues result is “K13 - K17 and K95 - K17”. For SMC2, O95347, the cross-linked residues entry with SMC4 is “K286 - K988 and K348 - K928 and K900 - K998 and K900 - K1009 and K911 - K1009 and K911 - K1017 and K930 - K1037”.

Take SNW1, Q13573: in the test with SNRNP40, the cross-linked residues result is “K153 - K349 and K170 - K349”. With SNRPB2, P08579, the cross-linked residues result in the test with SNRPD3 was “K93 - K31 and K93 - K78 and K93 - K84”. For SPCS2, Q15005, the cross-linked residues entry with SPCS1 was “K50 - K143 and K169 - K143 and K191 - K143”. SPTBN1, Q01082: the cross-linked residues entry with SPTAN1 is “K292 - K2404 and K462 - K2098 and K659 - K1911 and K784 - K1698 and K853 - K1698 and K1011 - K1591 and K1156 - K1486 and K1466 - K1132 and K1485 - K930 and K1525 - K824 and K1525 - K909 and K1532 - K909 and K1632 - K718 and K1632 - K846 and K2054 - K441”.

As to SRP14, P37108, the cross-linked residues entry in the test with SRP9 is “K55 - K76 and K74 - K76 and K78 - K76 and K95 - K60”. Take HSP90AB1, P08238: in the test with STIP1, the cross-linked residues result was “K435 - K486 and K435 - K513 and K491 - K337 and K624 - K446 and K624 - K486”. Turning to THOC2, Q8NI27, the cross-linked residues entry with THOC1 was “K970 - K528 and K1062 - K133”. As to BCLAF1, Q9NYF8, the cross-linked residues entry with THRAP3 is “K599 - K558 and K599 - K602”.

With TMED9, Q9BVK6, the cross-linked residues entry in the test with TMED5 was “K160 - K141 and K160 - K164”. XRCC6, P12956: the cross-linked residues entry with XRCC5 is “K114 - K325 and K189 - K603 and K317 - K282 and K570 - K195 and K570 - K469”. Turning to YWHAB, P31946, the cross-linked residues entry in the test with YWHAZ was “K11 - K85 and K87 - K9”. The same measure, in the same setting: with YWHAQ, P27348 the entry was “K9 - K85 and K85 - K9”.
